Numbering of substitutions follows the chain as printed. Some of the results follow.

The source of these data is PMC12136788.

B1: chr3:9412954:9412955:+_ENSG00000134077_ENST00000452837|hu_mus|hu_hu_hu_mus_False|28_48 (ssRNA)
RNA: GGGAGUUCUACAGUCCGACGAUCGGUUGAUAUCUCUUCUUUGAUGGCUGGAUUUUCAUAAUAGUCCAAGAUAUGUGAAUCUGAAGUAUGGCUAGUGUGCUUUUUCUUAACAUUUCUCUCAUCUGCUUUGUCUCCUUGUCCACACAACAGAGGAUUGAGCAUCA
B2: chr11:69638232:69638233:-_ENSMUSG00000051790_ENSMUST00000056484|mus_mus|FALSE|FALSE (ssRNA)
RNA: GGGAGUUCUACAGUCCGACGAUCUCUCCAGGGAGUUGGACGGGGAGGAGAAGACGAAGGCAUGGGAUACAAAUCCCCGCAGAAAUUCUUGGAGGAGGCAAACAUGUGUCCAGGGCGGCAAAACAAACAAACAAACAAACAACCCAACAGAGGAUUGAGCAUCA
B3: chr3:150289932:150289933:+_ENSG00000144895_ENST00000460851|hu_hu|hu_hu_hu_mus_False|18_58 (ssRNA)
RNA: GGGAGUUCUACAGUCCGACGAUCCUUGUAGUUUUUAACAUCCCAUACUUCCAUUUGUCCUCGAAGAUUUCCAAAUCCAGCUAAUACUAAUAUAUGUCCAUGAGGGCUAUAGAAGGCUGCAUUACGAGGACCAGUCCCAAAGUCCAACAGAGGAUUGAGCAUCA
B4: chr14:78183846:78183847:+_ENSG00000119705_ENST00000557342|hu_hu|hu_hu_hu_mus_False|1_48 (ssRNA)
RNA: GGGAGUUCUACAGUCCGACGAUCUCUCAGAAAUCUUUCUUCAUCAGAUGUUUGAGCUCCGUGCAAAGCCUUUGCUCUUUGAGCUUGAACCUGGACCUAUGGGAGGGAAAGCACUGUCAGAAAAGGUAAUUUUUUUUUCCGAAGCAACAGAGGAUUGAGCAUCA
B5: chr8:38205342:38205343:-_ENSG00000147548_ENST00000316985|hu_mus|motif|central (ssRNA)
RNA: GGGAGUUCUACAGUCCGACGAUCCAGAAUUUCAUGUGGUCUUGUGUUUGGAAUUUCUGAAUGGUAAUAGUCAGUAGGGCGGAAGUUUCUAACUGCACCAAAACCGUUGGCUGACCCAUUGGGAUACUGAUUAUAUGGCGGGUACAACAGAGGAUUGAGCAUCA
B6: chr1:174983830:174983831:-_ENSG00000120333_ENST00000367677|hu_mus|motif|central (ssRNA)
RNA: GGGAGUUCUACAGUCCGACGAUCUUCUGAAAUGGUUUUACCAUAUCGCUCGCUGGACUCCAGAAAGUAGCCCGUGGUCAGCGGAGUGGCGGAAGACAAUGCGACUAAGUCUCCAGCGACGCUUAACACCACGUGGGCGAGAUGCAACAGAGGAUUGAGCAUCA
B7: chr10:33190432:33190433:-_ENSG00000150093_ENST00000302278|hu_mus|hu_hu_hu_mus_True|58_58 (ssRNA)
RNA: GGGAGUUCUACAGUCCGACGAUCUACAUUUUCCAAACCUGCAUGUGAAUAAAACCCUGGCCACAGAGCCCCAAAACUACCUAACUGUGACUAAGAUGCUGCUGCUGUGAGCUUGGUGUUGCAAAAUCCGCCUGAGUAGGAUUCCAACAGAGGAUUGAGCAUCA
B8: chr17:56552419:56552420:-_ENSMUSG00000013236_ENSMUST00000086828|mus_mus|mus_mus_mus_hu_False|1_1 (ssRNA)
RNA: GGGAGUUCUACAGUCCGACGAUCAAAAAAUACACUAUUUAAAAAAAAUGAAAUGUCACGGGAUACAGUUACACUGAGAGUUUUAAAAGAAAGCUGGAUUCUGGUCCCAGCCCAGUGUCCCCAGGCUGCAGAGCGGGGCAGAGGCAACAGAGGAUUGAGCAUCA
B9: chr2:71279510:71279511:+_ENSMUSG00000027018_ENSMUST00000028408|mus_mus|FALSE|FALSE (ssRNA)
RNA: GGGAGUUCUACAGUCCGACGAUCUCAUAAACUCUAGACAGUAUUUUAAAAUAUACAAUCUCUCAAAAGGAAAUAUUCCACUAAGGAGAACAUAGAUAACUUUAGGGUCAUCAGAGGUUCACAGCACGAUGCACAGAAAUCUGCCAACAGAGGAUUGAGCAUCA
B10: chr2:148695906:148695907:-_ENSG00000115947_ENST00000542387|hu_mus|motif|central (ssRNA)
RNA: GGGAGUUCUACAGUCCGACGAUCCACCAUUUGAAAAUUAAAGGGCUCCUCUUCAUAUAUGUCAUUUAAAUGUUUCAUUGCGGUUAUAAGACAGAUUUCCAAGACUGACAGACCAUGUACAAUAUUCGCCUUAGAAUCCAAGCUCAACAGAGGAUUGAGCAUCA
B11: chr17:61432403:61432404:+_ENSG00000170921_ENST00000424789|hu_hu|FALSE|FALSE (ssRNA)
RNA: GGGAGUUCUACAGUCCGACGAUCCUUCAUAUUGCACUGGAGUAAAUAAACCUCUGAGAGCGAAACAGGAACUACUUUGUAGCUAGAGCUCUUUAACACUAGAUAGCCUUUCUCUAUGAGGUCAAAUGUAAGUUUCAGAUAUAGCAACAGAGGAUUGAGCAUCA
B12: chr10:24632488:24632489:+_ENSMUSG00000019984_ENSMUST00000092646|mus_hu|motif|central (ssRNA)
RNA: GGGAGUUCUACAGUCCGACGAUCUGCUGGAGACCCACUGUUCAUGGCUUGUGGAGGCACUGCAGCUGGCUCCAUCUUGCGGAUGUGUGUGAUGAAUCGAAGACGAAGUUUUAAAGCUGGUUUUAAGUUACAGAUAAUCUUCUCCAACAGAGGAUUGAGCAUCA
B13: 116608439_116615018_2141_3pUTR_ENSG00000151553_ENST00000369248|human|control|control (ssRNA)
RNA: GGGAGUUCUACAGUCCGACGAUCUUCCAAUGCUUUUGGAGACCCAGGCCACUCCCAUCUUAAGCAGAUAGCACAGUAGUCUCGGAACUGCCUAUGAGCGUCUCGGAGGUAAGUGUCAUAUCCUGUGCCCUCAACAUGGUAGGACAACAGAGGAUUGAGCAUCA
B14: chr10:33190432:33190433:-_ENSG00000150093_ENST00000302278|hu_mus|hu_hu_hu_mus_True|1_1 (ssRNA)
RNA: B7 RNA with U81C, A82U, A137C, G138A, A140U, U141A, U142C, C143U
B15: chrX:71549400:71549401:+_ENSMUSG00000019087_ENSMUST00000019231|mus_hu|mus_mus_mus_hu_False|58_88 (ssRNA)
RNA: GGGAGUUCUACAGUCCGACGAUCGCAGUAGGAAGAGGGAAGCUCUUCAUCCACUGUCGCUGCAGGGUGGGAAAGCACAACCUAGACCACCGUCCCACCCUCAACCCCCCCACUGGCACAGGGUCACACAAUCUGGGUCAAAGACAACAGAGGAUUGAGCAUCA
B16: chr5:54390236:54390237:+_ENSMUSG00000039156_ENSMUST00000071083|mus_hu|FALSE|FALSE (ssRNA)
RNA: GGGAGUUCUACAGUCCGACGAUCACUCAGUGACAUGCAGGGAUCUGUCAUGAGCGCCGGGCUAUCGCCGGCCGCCGCGGCGGGAGAGGAGGCGGCAGUUGCGGCAGAGCCAGUCGCCCGCCGCCCGCGGAGGUGCCGGGGCACCAACAGAGGAUUGAGCAUCA
B17: chr7:129114946:129114947:-_ENSMUSG00000034951_ENSMUST00000057576|mus_mus|FALSE|FALSE (ssRNA)
RNA: GGGAGUUCUACAGUCCGACGAUCAUCCACAAGCAUCAUCAAGCUGUUCUGCAUGCCGGUCAGCUUUGCAGAAAUCACAGCUAUGUCUUGAGUUUUGAAGGUCUCCUCAAUAUCAGCACUCAGCGUGCUCCACUUGUCAGCUUCCAACAGAGGAUUGAGCAUCA
B18: chr12:493273:493274:-_ENSG00000073614_ENST00000399788|hu_mus|FALSE|FALSE (ssRNA)
RNA: GGGAGUUCUACAGUCCGACGAUCUUUUCUCUCCACCACAGGGAUCUUCAAUGUAGAUCCUUGAAGUUCCCAAAAUUUUGCCAGUUGAUCCAAGAAGUCCAAUCUUACUCUAGUCAUUGCCUCAAGUUCAUUCAGGCGCUGGACCAACAGAGGAUUGAGCAUCA
B19: chr1:23395093:23395094:+_ENSG00000004487_ENST00000356634|perfect_dup|motif|central (ssRNA)
RNA: GGGAGUUCUACAGUCCGACGAUCUGCCUGGCCAAGGGACACAGGCUUAUUAUUGAGGACAUUGAAGUCUAGUUGAUGACGGAGGUAAGAUGUAGCUUCUAGCAACCGGUUAAACUCUUGCUCUACCAUUUCAUCUUUCUCUUUCAACAGAGGAUUGAGCAUCA
B20: chr3:123074248:123074249:-_ENSMUSG00000028114_ENSMUST00000029759|mus_hu|FALSE|FALSE (ssRNA)
RNA: GGGAGUUCUACAGUCCGACGAUCAAUUGUACUAUCUCUUCCAAAUAGAUGAAGGCGUCUUCUACCAAGACAAAAAUGCUCAAUUAUAUGAAAAAUUUCUACAGGUUUUUCUAUAUUGCCAAUUUCAGGUUCUUCUGUGAUAAUCAACAGAGGAUUGAGCAUCA
B21: chr15:31432613:31432614:-_ENSMUSG00000039100_ENSMUST00000090227|mus_hu|FALSE|FALSE (ssRNA)
RNA: GGGAGUUCUACAGUCCGACGAUCGCGGCUUGGUGUAAAAGCAAAUCUGUGCUUGCAUAAUUCACAGUAUUCUUUUCGACUGUGUUUCAGCCAUUGAACUAAGCAUUCUUGAUGGAUAAACUUAAUACUGCCAGUACAUACACACAACAGAGGAUUGAGCAUCA
B22: chr3:135071361:135071362:-_ENSMUSG00000028165_ENSMUST00000029815|mus_mus|motif|central (ssRNA)
RNA: GGGAGUUCUACAGUCCGACGAUCAAGGGGUUUUACUGCCUCAAAAUAUUGUUGAUGGCAAUUAUUUUUCAUAAUUCUUCGGAAAGCAGCAGAGUUCCACAAAAGGCCAAAAAAAUGGCAAAUGACUUCAAAUGAGCAAAACAACAACAGAGGAUUGAGCAUCA

The experiment addresses T1, UNK ZnF1-3 (human, UniProt Q9C0B0 31-174).
T1 sequence: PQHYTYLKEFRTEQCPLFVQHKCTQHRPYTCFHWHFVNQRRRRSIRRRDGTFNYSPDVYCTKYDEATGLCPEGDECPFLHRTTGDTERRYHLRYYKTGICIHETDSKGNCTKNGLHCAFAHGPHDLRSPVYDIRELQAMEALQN
Nature of the experiment: nsRBNS (natural sequence RNA bind-n-seq); RBNS binding buffer (assumed for nsRBNS): 25 mM Tris pH 7.5, 150 mM KCl, 3 mM MgCl2, 0.01% Triton X-100, 500 ug/ml BSA, 20 U/ml SUPERase-In, 4 C; UNK is unkempt and MSI1 is Musashi-1; names of the RNAs are library labels; protein concentration not given here; high values mean tight binding.
The molecule B1 registered a binding signal of 0.329 enrichment R.

In turn, B2 returned a binding signal of 2.33 enrichment R.

B3 gave a binding signal of 1.35 enrichment R.

B4 showed a binding signal of 1.18 enrichment R.

Molecule B5 yielded a binding signal of 1.27 enrichment R.

B6 registered a binding signal of 0.83 enrichment R.

As to B7, the binding signal is 1.32 enrichment R.

In turn, B8 registered a binding signal of 2.1 enrichment R.

For B9, the binding signal came out at 0.64 enrichment R.

B10 displayed a binding signal of 1.94 enrichment R.

For the molecule B11, the binding signal was 0.904 enrichment R.

The molecule B12 registered a binding signal of 0.876 enrichment R.

Molecule B13 showed a binding signal of 0.715 enrichment R.

Regarding B14, the binding signal was determined as 1.08 enrichment R.

The molecule B15 displayed a binding signal of 0.892 enrichment R.

The molecule B16 had a binding signal of 0.719 enrichment R.

The molecule B17 came in with a binding signal of 0.873 enrichment R.

On to B18, for which the binding signal came out at 0.998 enrichment R.

Molecule B19 gave a binding signal of 0.618 enrichment R.

B20 registered a binding signal of 0.841 enrichment R.

B21 gave a binding signal of 0.854 enrichment R.

In the case of B22, the binding signal came out at 1.34 enrichment R.
